Molecular target: T1, biotinylated truncated STAT6 (123-632)-avi (Homo sapiens, UniProt P42226)
T1 sequence (P42226 123-632 limits assumed): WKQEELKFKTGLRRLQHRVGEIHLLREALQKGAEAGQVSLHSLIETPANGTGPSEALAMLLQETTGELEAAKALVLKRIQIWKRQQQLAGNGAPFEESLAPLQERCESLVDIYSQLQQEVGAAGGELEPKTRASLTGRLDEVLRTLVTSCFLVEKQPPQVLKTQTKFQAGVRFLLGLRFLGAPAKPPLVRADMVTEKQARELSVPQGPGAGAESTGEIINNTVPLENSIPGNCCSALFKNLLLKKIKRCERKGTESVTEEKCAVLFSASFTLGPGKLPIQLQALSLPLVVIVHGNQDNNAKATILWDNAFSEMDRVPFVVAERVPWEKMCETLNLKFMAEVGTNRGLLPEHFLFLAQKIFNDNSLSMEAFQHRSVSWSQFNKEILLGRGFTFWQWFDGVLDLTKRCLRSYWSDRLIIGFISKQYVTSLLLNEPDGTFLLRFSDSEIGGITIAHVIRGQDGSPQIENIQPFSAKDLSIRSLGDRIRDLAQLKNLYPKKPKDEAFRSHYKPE
Experiment: Homogenous Time-Resolved Fluorescence (HTRF) binding assay
Details: 0.15 nM biotinylated truncated STAT6 (123-632)-avi, 20 nM fluorescein-labeled probe

Compound | IC50 (30 minutes room temperature) [nM] | IC50 (30 minutes at room temperature) [nM]
COc1ccccc1-c1cc(C2=CCCN(C(=O)CCn3ccnn3)C2)c(F)c2[nH]c(C(=O)N3CNC(=O)NC3)cc12 [Example I-1569] | < 100 | 
CC(=O)N1CCC=C(c2cc(-c3ccc(C(F)(F)F)cc3O)c3cc(C(=O)N(C)C)[nH]c3c2F)C1 [Example I-888] |  | 100 to 1000
CN1CCN(c2cccc(-c3cc4cc(C5=CCCN(C(=O)CCn6ccnn6)C5)ccc4o3)c2)CC1 [Example I-1290] | 10000 to 100000 | 
COc1ccccc1-c1cc(C2=CCCN(C(=O)CCn3ccnn3)C2)c(F)c2[nH]c(C(=O)N3CCN(c4cnn(C)c4C#N)CC3)cc12 [Example I-1005] |  | < 100
COc1cc(F)cnc1N1CCN(C(=O)c2cc3c(-c4cccc5c4CC[C@H]5O)cc(C4=CCCN(C(=O)CCn5ccnn5)C4)c(F)c3[nH]2)CC1 [Example I-658] |  | < 100
COc1ccccc1-c1cc(C2=CCCN(C(=O)CCn3ccnn3)C2)c(F)c2[nH]c(C(=O)N3CCN(c4ccccn4)CC3)cc12 [Example I-862] |  | < 100
CN(C)C(=O)c1cc2cc(C3=CCCN(C(=O)CCn4ccnn4)C3)cc(-c3cc(F)ccc3C(F)(F)F)c2o1 [Example I-1081] |  | < 100
COc1cc(F)cnc1N1CCN(C(=O)c2cc3c(-c4ccc(C(F)F)cc4)cc(C4=CCCN(C(=O)CCn5ccnn5)C4)c(F)c3[nH]2)CC1 [Example I-1160] |  | < 100
CN(C)C(=O)c1cc2ccc(C3=CCCN(C(=O)CN4CCOC4=O)C3)cc2[nH]1 [Example I-42] |  | 10000 to 100000
CCNC(Cn1ccnn1)C(=O)N1CCC=C(c2ccc3oc(C(=O)N(C)C)cc3c2)C1 (centres unmarked) [Example I-153] |  | 10000 to 100000
COc1ccccc1-c1cc(C2=CCCN(C(=O)CCn3ccnn3)C2)c(F)c2[nH]c(C(=O)N3CC4CCN(Cc5ccccc5)C4C3)cc12 (centres unmarked) [Example I-987] |  | 1000 to 10000
COc1cccnc1N1CCN(C(=O)c2cc3c(C4=C(C)CCCC4)cc(C4=CCCN(C(=O)CCn5ccnn5)C4)c(F)c3[nH]2)CC1 [Example I-569] |  | < 100
COc1cc(C)c(-c2cc(C3=CCCN(C(C)=O)C3)c(F)c3[nH]c(C(=O)N(C)C)cc23)cc1C [Example I-1501] | 100 to 1000 | 
COc1ncccc1-c1cc(C(=O)N2Cc3cnn(C)c3C2)cc2cc(C3=CCCN(C(=O)CCn4ccnn4)C3)n(CC3CC3)c12 [Example I-717] |  | 10000 to 100000
COc1ccccc1-c1cc(C2=CCCN(C(=O)CCn3ccnn3)C2)c(F)c2[nH]c(C(=O)N3CCN(c4ncc(C#N)cc4OC)CC3)cc12 [Example I-940] |  | < 100
COc1cc(C)c(N2CCN(C(=O)c3cc4c(-c5ccccc5OC)cc(C5=CCCN(C(=O)CCn6ccnn6)C5)c(F)c4[nH]3)CC2)c(C)n1 [Example I-958] |  | 100 to 1000
COc1cc(F)cnc1-c1cc(C2=CCCN(C(=O)CCn3ccnn3)C2)c(F)c2[nH]c(C(=O)N3CCN(c4ncc(F)cc4OC)CC3)cc12 [Example I-614] |  | < 100
COc1ccc(-c2cc(C3=CCCN(C(=O)CCn4ccnn4)C3)cc3cc(C(=O)N(C)C)oc23)c(C#N)c1 [Example I-854] |  | < 100
COc1ccccc1-c1cc(C2=CCCN(C(=O)CCn3ccnn3)C2)c(F)c2[nH]c(C(=O)N3CCN(c4nccc5ccccc45)CC3)cc12 [Example I-363] |  | < 100
COc1cccnc1N1CCN(C(=O)c2cc3c(-c4cnccc4C(C)C)cc(C4=CCCN(C(=O)CCn5ccnn5)C4)c(F)c3[nH]2)CC1 [Example I-607] |  | > 100000
CN(C)C(=O)c1cc2ccc(C3=CCCN(C(=O)CCc4ccccn4)C3)cc2[nH]1 [Example I-212] |  | 1000 to 10000
COc1ccccc1-c1cc(C2=CCCN(C(=O)CCn3ccnn3)C2)c(F)c2[nH]c(C(=O)N3CCN(c4c(C(F)(F)F)ncn4C)CC3)cc12 [Example I-1346] | < 100 | 
COc1ccccc1C(=O)N1CCN(C(=O)c2cc3c(-c4ccccc4OC)cc(C4=CCCN(C(=O)CCn5ccnn5)C4)c(F)c3[nH]2)CC1 [Example I-991] |  | < 100
COc1ccccc1-c1cc(C2=CCCN(C(=O)CCn3ccnn3)C2)c(F)c2[nH]c(C(=O)N(CCO)CCc3ccccc3)cc12 [Example I-1570] | 1000 to 10000 | 
COc1cc(F)ccc1-c1cc(C2=CCCN(C(=O)CCn3ccnn3)C2)c(F)c2[nH]c(C(=O)N3CCN(c4ncc(Cl)cc4OC)CC3)cc12 [Example I-459] |  | < 100
CCc1cc(C)ncc1-c1cc(C2=CCCN(C(=O)CCn3ccnn3)C2)c(F)c2[nH]c(C(=O)N3Cc4cnn(CC)c4C3)cc12 [Example I-529] |  | < 100
COc1ccccc1-c1cc(C2=CCCN(C(=O)CCn3ccnn3)C2)c(F)c2[nH]c(C(=O)N3CC(CO)C3)cc12 [Example I-1547] | 100 to 1000 | 
COc1cc(F)cnc1N1CCN(C(=O)c2cc3c(-c4cc(C)ncc4C)cc(C4=CCCN(C(=O)CCn5ccnn5)C4)c(F)c3[nH]2)CC1 [Example I-646] |  | < 100
CN(C)C(=O)c1cc2ccc(C3=CCCN(C(=O)c4cc(=O)c(OCc5ccccc5)c[nH]4)C3)cc2[nH]1 [Example I-110] |  | 1000 to 10000

— US20250214977A1, “STAT6 INHIBITORS AND USES THEREOF” (Kymera Therapeutics, Inc., priority 2024, published 2025)
